Hit rate of the full screen: of about 44,000 compounds, about 340 (0.77%) were called active. About 5% were inconclusive and are not listed. Calls come from the whole dose curve; as a rule, active = well fitted inhibition curve with a large enough effect; inconclusive = small, poorly fitted or top-dose-only effect; inactive = flat fitted curve, though single readings scatter. Some of the results follow.
Assay: Acumen qHTS Assay for Inhibitors of the mTORC1 Signaling Pathway in MEF (Tsc2-/-, p53-/-) Cells: Sytravon; note: nearly all actives have a fitted effect of over 50% in size;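 for activity change, negative = inhibition: plate controls were DMSO for no effect and rapamycin for full effect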
Conditions: phospho-rpS6 immunofluorescence/PI, 24 h; series mostly up to 38.3 µM; activity change, negative = inhibition: at the top concentration
Outline: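 Immunofluorescence of rpS6 phosphorylation in Tsc2-/-, p53-/- MEFs after 24 h compound exposure, normalized to propidium iodide signal. Activity is expressed as % positive cells, thresholded with 7.5 nM rapamycin.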
Potency is the fitted concentration of half-maximal effect.

Structure (SMILES) | activity change, negative = inhibition | Potency
Clc1ccc(-c2noc3ncnc(NCCc4ccccc4)c23)cc1 | inactive: 6.04% | –
O=C(Nc1ccc2c(c1)CCCN2C(=O)c1cccs1)c1ccccc1Cl | inactive: 0% | –
COc1cc(OC)c(Nc2nc3ccc(C(=O)c4ccccc4)cc3n3c(C)nnc23)cc1Cl | inactive: -2.31% | –
O=C(Nc1ccc(OC(F)(F)F)cc1)c1cc2ccccn2n1 | inactive: -0.896% | –
O=c1nc2n(-c3ccccc3F)c3ccccc3cc-2c(=O)[nH]1 | inactive: -10.3% | –
CCCCn1cc2c(c1-c1ccc(Cl)cc1)c(=O)n(C)c(=O)n2C | inactive: -13.3% | –
Cc1cc(C)cc(NS(=O)(=O)c2cc3c(cc2C)NC(=O)CO3)c1 | inactive: 3.31% | –
CCC(=O)N(CCC(c1ccccc1)c1ccc2c(c1)OCO2)Cc1ccc(OC(C)C)cc1 (stereo not drawn) | inactive: -0.946% | –
CCOC(=O)c1c(NC(=O)c2ccc(S(=O)(=O)N(CC(C)C)CC(C)C)cc2)sc2c1CCN(C(=O)OCC)C2 | inactive: -18.5% | –
COc1ccc(NC(=O)CSc2nnc(-c3nonc3NC(C)=O)n2-c2ccccc2)cc1 | inactive: 2.12% | –
COc1ccc(Cl)cc1NC(=O)c1sc2nc3n(c(=O)c2c1C)CCC3 | inactive: 6.11% | –
CCCN(C(=O)Cn1cnc2onc(-c3ccc(F)cc3)c2c1=O)c1cccc(Cl)c1 | inactive: -5.65% | –
CCC(Sc1nc2ccccc2c(=O)n1CCc1ccc(OC)c(OC)c1)C(=O)N(CC)CC (stereo not drawn) | inactive: -6.68% | –
Cc1cc(C)n(-c2nc3ccccc3nc2Nc2cccc(C)c2C)n1 | inactive: -3.66% | –
CCOc1ccc(CCNS(=O)(=O)c2cc(Br)cc3c2N(C(C)=O)CC3)cc1OCC | inactive: -0.36% | –
COC(=O)c1c(NC(=O)CCCOc2cccc(C)c2)sc2c1C(C(=O)OC)CC2 (stereo not drawn) | inactive: -3.06% | –
CCN(CC)C(=O)Cn1c(=O)n(Cc2ccc(C(=O)NCCc3ccc(OC)c(OC)c3)cc2)c(=O)c2ccccc21 | inactive: 2.02% | –
CCc1ccc(CN(Cc2cn[nH]c2-c2ccc(OC)cc2)C(=O)Nc2cc(Cl)ccc2OC)cc1 | inactive: -2.07% | –
Cc1ccc(-n2ncc(C(=O)NCc3ccco3)c2C2CCN(C(=O)OC(C)(C)C)CC2)c(C)c1 | inactive: 0.018% | –
CC(=O)c1ccc(N2C(=O)N(CC(=O)c3ccc(F)cc3)c3ccccc3S2(=O)=O)cc1 | inactive: -6.16% | –
Cc1ccc(-n2ncc3c(NC4CCCCCC4)ncnc32)cc1Cl | inactive: 12.5% | –
COc1ccc(S(=O)(=O)NCCc2csc(-c3ccc(F)cc3)n2)cc1F | inactive: -2.34% | –
Cc1sc2ncn(CC(=O)N(C)c3ccc(Br)cc3)c(=O)c2c1S(=O)(=O)N1CCC(C)CC1 | inactive: -0.862% | –
Cc1nc2c(C(=O)NCc3ccccc3)c[nH]n2c(=O)c1Cc1ccccc1Cl | inactive: 4.62% | –

Structure (SMILES) | activity change, negative = inhibition | Potency
Cc1cccc(NC(=O)c2c(C)oc3ncn(CC(C)C)c(=O)c23)n1 | inactive: 6.91% | –
CC(=O)N1CCc2cc(S(=O)(=O)CCC(=O)N3CCN(c4cccc(C)c4C)CC3)ccc21 | inactive: -5.54% | –
COc1ccc(NC(=O)c2noc3c2CCCC3)cc1Cl | inactive: -14% | –
O=C(NCCc1ccccc1)c1cc(-c2ccc(Cl)cc2)on1 | inactive: 5.63% | –
COc1cccc(NC(=O)Nc2cccc(-c3cn4cccnc4n3)c2)c1 | inactive: 1.55% | –
CCOc1ccc(-c2nnc(Nc3ccc(S(N)(=O)=O)cc3)c3ccccc23)cc1 | inactive: 11.3% | –
CCCOC1(C(F)(F)F)NC(=O)N(c2ccc(Cl)cc2)C1=O (stereo not drawn) | inactive: 7.61% | –
Cc1cc(C)c(NC(=O)CSc2nc(=O)[nH]c3c2CCCC3)c(C)c1 | inactive: -1.61% | –
O=C(NC(=O)c1ccc(F)cc1)Nc1ccc(-c2cc(C(F)(F)F)nn2-c2ccccc2)cc1 | inactive: -7.3% | –
O=C(NCCc1csc2nc(-c3ccccc3F)nn12)c1ccco1 | inactive: 0.0684% | –
Cc1oc2c(c(C)cc3oc(=O)c(CC(=O)NCCc4ccccc4)c(C)c32)c1C | inactive: 4.88% | –
CN1C(C(=O)c2ccccc2)=C(OC(=O)c2ccc(Br)cc2)c2ccccc2S1(=O)=O | inactive: -2.36% | –
Cc1ccc(NC(=O)Nc2ccc3c(c2)N(C)C(=O)c2ccccc2S3)c(C)c1 | inactive: -18.8% | –
COc1ccccc1NC(=O)c1c(NCc2ccc(OC)c(OC)c2OC)sc2c1CCCC2 | inactive: -10.1% | –
CCOC(=O)c1c(C)[nH]c(C)c1S(=O)(=O)NCC(=O)Nc1cc(C)ccc1OC | inactive: 4.87% | –
CCN1CCN(CCCNC(=O)c2cnn(-c3ccccc3)c2C2CCN(C(=O)OC(C)(C)C)CC2)CC1 | inactive: 1.27% | –
COc1ccc(N2CCN(S(=O)(=O)CCNC(=O)C(c3ccccc3)c3ccccc3)CC2)cc1 | inactive: -0.73% | –
COc1cccc(C2C=C(c3ccc(C)c(C)c3)Nc3nnnn32)c1OC (stereo not drawn) | inactive: -18% | –
Cc1ccc(C)c(CN2C(=O)C(=O)c3ccccc32)c1 | – | active: 2.93 µM
O=C1CSC2(C(=O)N(Cc3ccccc3F)c3ccccc32)N1c1ccc(F)cc1 (stereo not drawn) | inactive: -3.77% | –
COc1ccc(-n2ccnc2SCC(=O)Nc2ccc(F)cc2F)cc1 | inactive: -5% | –
Cc1cc2nn(-c3ccccc3)nc2cc1NC(=O)c1cccc2c(Cl)cccc12 | inactive: 13.5% | –
O=C(NCCc1ccccc1)c1ccc(CS(=O)(=O)c2ccc(Br)cc2)o1 | inactive: 0.328% | –
Cc1ccc2onc(CNC(=O)N3CCN(c4cccc(C)c4C)CC3)c2c1 | inactive: -16.1% | –

From PubChem BioAssay AID493208 (National Center for Advancing Translational Sciences (NCATS), 2011)
